Values marked as one replicate rest on one cluster of the flow cell; about a third of the high ones do not repeat.
The sequences below were run on ATP (assay: switch fluorescence ratio, 500 uM ATP over buffer (Cy3 cluster intensity, sum of 5 cycles each) (fold (ratio)); higher = stronger signal-on switching upon ATP binding; sequences stand for … in TCGTCGGCAGCGTCAGATGTGTATAAGAGACAGTTTTTTTTTTTTTTTTTTTTTTTTT…TC). Details: aptamer strand: ATP DNA aptamer (quencher-CACCTGGGGGAGTATTGCGGAGGAAGG + anchor), 100 nM annealed; ATP concentration: 500 uM; one replicate.
In short: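 The quencher-labelled ATP aptamer, at 100 nM, was annealed to Cy3-labelled switching-strand clusters on a modified Illumina MiSeq flow-cell. The clusters were imaged in selection buffer, then after 15 min with 500 uM ATP at 22 °C, and this buffer/ATP cycle ran five times with NaOH stripping and re-annealing between runs. Per-cluster fluorescence ratios, summed target-cycle over summed buffer-cycle Cy3 intensity, were averaged per switch-domain sequence. Clusters outside 100-1000 RFU were excluded.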
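Also: ATP exposure 15 min at 22 °C before imaging.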

Sequence | switch fluorescence ratio
ACGTTTGACG | 0.944
ACTAAAAAC | 0.993
ACTAAAGTAT | 1.01
ACTAACTGCT | 1.07
ACTAAGGGCC | 1.02
ACTAATCGGC | 1
ACTAATGCAC | 1.09
ACTAATTCGG | 1.01
ACTAGATAGC | 0.993
ACTAGATCCT | 1.11
ACTAGATGGT | 0.969
ACTAGCCAGG | 1.62
ACTAGCCC | 1.03
ACTAGTACTA | 1.08
ACTAGTCAGC | 1.02
ACTAGTGACA | 1.04
ACTAGTTC | 1.03
ACTAGTTTGT | 1.02
ACTATGAAGC | 1.05
ACTATGGGTC | 1.03
ACTATGGTCT | 1.01
ACTATTACTG | 1.28
ACTATTCCTG | 0.989
ACTATTTGCT | 0.97
ACTCAACGGA | 1.12

Sequence | switch fluorescence ratio
ACTCAAGGGC | 1.21
ACTCACCGTC | 1.3
ACTCAGGCGT | 1.09
ACTCAGGGCA | 1.07
ACTCAGTGA | 1.12
ACTCAGTGTG | 1.11
ACTCCACCCA | 1.47
ACTCCCAACA | 2.58
ACTCCTAACG | 1.16
ACTCCTTTTG | 1.07
ACTCGAACAC | 1.3
ACTCGACAGC | 1.24
ACTCGGGAGC | 1.01
ACTCGTGAGA | 1.03
ACTCTAGAAA | 1.06
ACTCTCA | 1.02
ACTCTCGCTT | 2.39
ACTCTCTTCA | 1.02
ACTCTGCCGC | 1.78
ACTCTGTGTG | 1.04
ACTGAAATTG | 1
ACTGAGGCGA | 0.883
ACTGAGTACT | 1.05
ACTGATATTA | 0.977
ACTGATATTG | 1.05

Sequence | switch fluorescence ratio
ACTGATCCCA | 1.01
ACTGATCCCT | 1.01
ACTGATTATT | 1.02
ACTGCAGCGA | 1.18
ACTGCCAATT | 1.13
ACTGCGTAGT | 1.01
ACTGCGTCGC | 1.04
ACTGCTATTT | 1.14
ACTGCTGAAA | 0.957
ACTGCTTTCT | 0.98
ACTGGCATTC | 1.31
ACTGGCTG | 1.05
ACTGGGCCAA | 1
ACTGGGTTA | 1.02
ACTGGTACCA | 1.02
ACTGGTGCGC | 1.02
ACTGTATCTA | 1.19
ACTGTCCTCA | 1.05
ACTGTCGGGA | 1
ACTGTCTGCG | 0.997
ACTGTGCTGT | 1.01
ACTGTGTAC | 1.06
ACTGTGTGCC | 0.985
ACTGTTAGAA | 1.03
ACTGTTGTAT | 0.911

Sequence | switch fluorescence ratio
ACTGTTGTCT | 0.994
ACTTACATGA | 1.24
ACTTAGGTAT | 1.05
ACTTAGTCAT | 1.06
ACTTAGTGGC | 1.06
ACTTATACTG | 1.12
ACTTCAGTCC | 0.996
ACTTCATCGA | 1.02
ACTTCATGGT | 1
ACTTCCGACT | 2.15
ACTTCGAGT | 1.05
ACTTCGCGCC | 2.34
ACTTCGGCCA | 1.04
ACTTCGTGAA | 1.08
ACTTCTACGG | 1.15
ACTTCTGCTG | 1
ACTTGAGTTA | 1.02
ACTTGATTTA | 1.03
ACTTGCATTT | 0.996
ACTTGCGTTA | 1.03
ACTTGCTAGT | 0.996
ACTTGCTTGG | 1.05
ACTTGGAAGC | 1.04
ACTTGGACG | 1.03
ACTTGGCACC | 1.12

— the supplement of paper PMC10126150
